Test results published in PubChem BioAssay (NCI).
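All cell lines were grown in 96-well plates and treated with compound for 48 hours. TGI denotes the concentration required for complete inhibition of growth.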

Experiments:
Assay in all cases: growth of human tumour cells (NCI), 48 h
OVCAR-4 ovarian = tested on: OVCAR-4 ovarian
HS 578T breast = tested on: HS 578T breast
UO-31 renal = tested on: UO-31 renal
A549 NSCLC = tested on: A549 NSCLC
SNB-19 CNS = tested on: SNB-19 CNS
KM12 colon = tested on: KM12 colon
K-562 leukemia = tested on: K-562 leukemia
M14 melanoma = tested on: M14 melanoma
HOP-62 NSCLC = tested on: HOP-62 NSCLC
PC-3 prostate = tested on: PC-3 prostate
TK-10 renal = tested on: TK-10 renal
T-47D breast = tested on: T-47D breast
NCI-H522 lung = tested on: NCI-H522 lung
RXF 393 renal = tested on: RXF 393 renal
A498 renal = tested on: A498 renal
SK-OV-3 ovarian = tested on: SK-OV-3 ovarian
OVCAR-8 ovarian = tested on: OVCAR-8 ovarian
SN12C renal = tested on: SN12C renal
SNB-75 CNS = tested on: SNB-75 CNS
SW-620 colon = tested on: SW-620 colon
COLO 205 colon = tested on: COLO 205 colon
SK-MEL-2 melanoma = tested on: SK-MEL-2 melanoma
NCI-H460 lung = tested on: NCI-H460 lung
NCI-H23 lung = tested on: NCI-H23 lung
UACC-257 melanoma = tested on: UACC-257 melanoma
NCI/ADR-RES ovarian = tested on: NCI/ADR-RES ovarian
CAKI-1 renal = tested on: CAKI-1 renal
MCF7 breast = tested on: MCF7 breast
MDA-MB-231 breast = tested on: MDA-MB-231 breast
DU-145 prostate = tested on: DU-145 prostate
MOLT-4 leukemia = tested on: MOLT-4 leukemia
OVCAR-3 ovarian = tested on: OVCAR-3 ovarian
ACHN renal = tested on: ACHN renal
BT-549 breast = tested on: BT-549 breast
OVCAR-5 ovarian = tested on: OVCAR-5 ovarian
HCT-15 colon = tested on: HCT-15 colon
NCI-H226 lung = tested on: NCI-H226 lung
MDA-N = tested on: MDA-N
EKVX NSCLC = tested on: EKVX NSCLC
HOP-92 NSCLC = tested on: HOP-92 NSCLC
RPMI-8226 leukemia = tested on: RPMI-8226 leukemia
SF-295 CNS = tested on: SF-295 CNS
LOX IMVI melanoma = tested on: LOX IMVI melanoma
HCC-2998 colon = tested on: HCC-2998 colon
U251 CNS = tested on: U251 CNS
SF-268 CNS = tested on: SF-268 CNS
786-0 renal = tested on: 786-0 renal
HCT-116 colon = tested on: HCT-116 colon
UACC-62 melanoma = tested on: UACC-62 melanoma
MDA-MB-435 = tested on: MDA-MB-435
SK-MEL-28 melanoma = tested on: SK-MEL-28 melanoma

For `O=C1Cc2c([nH]c3ccc(Br)cc23)-c2cccc(O)c2N1`, the TGI (OVCAR-4 ovarian) was over 100 µM, the TGI (HS 578T breast) was 61 µM and the TGI (UO-31 renal) was over 100 µM. The TGI (A549 NSCLC) was over 100 µM, the TGI (SNB-19 CNS) was over 100 µM and the TGI (KM12 colon) was over 100 µM. It also gave a TGI (K-562 leukemia) of over 100 µM, a TGI (M14 melanoma) of over 100 µM and a TGI (HOP-62 NSCLC) of over 100 µM. The TGI (PC-3 prostate) was over 100 µM, the TGI (TK-10 renal) was 89.7 µM and the TGI (T-47D breast) was 59.2 µM. For the same molecule, the TGI (NCI-H522 lung) was 42.2 µM, the TGI (RXF 393 renal) was over 100 µM and the TGI (A498 renal) was over 100 µM. It also gave a TGI (SK-OV-3 ovarian) of over 100 µM, a TGI (OVCAR-8 ovarian) of 41 µM and a TGI (SN12C renal) of over 100 µM. It also gave a TGI (SNB-75 CNS) of 98.3 µM, a TGI (SW-620 colon) of over 100 µM and a TGI (COLO 205 colon) of over 100 µM. It also gave a TGI (SK-MEL-2 melanoma) of over 100 µM, a TGI (NCI-H460 lung) of 66.9 µM and a TGI (NCI-H23 lung) of 66.5 µM. The TGI (UACC-257 melanoma) was 73 µM, the TGI (NCI/ADR-RES ovarian) was 53.4 µM and the TGI (CAKI-1 renal) was over 100 µM. It also gave a TGI (MCF7 breast) of over 100 µM, a TGI (MDA-MB-231 breast) of over 100 µM and a TGI (DU-145 prostate) of 92 µM. The TGI (MOLT-4 leukemia) was over 100 µM, the TGI (OVCAR-3 ovarian) was 69.8 µM and the TGI (ACHN renal) was over 100 µM. For the same molecule, the TGI (BT-549 breast) was 46.4 µM, the TGI (OVCAR-5 ovarian) was over 100 µM and the TGI (HCT-15 colon) was 44.3 µM. For the same molecule, the TGI (NCI-H226 lung) was over 100 µM, the TGI (MDA-N) was over 100 µM and the TGI (EKVX NSCLC) was over 100 µM. For the same molecule, the TGI (HOP-92 NSCLC) was over 100 µM, the TGI (RPMI-8226 leukemia) was 38.6 µM and the TGI (SF-295 CNS) was over 100 µM. It also gave a TGI (LOX IMVI melanoma) of 59.8 µM, a TGI (HCC-2998 colon) of 93.1 µM and a TGI (U251 CNS) of over 100 µM. It also gave a TGI (SF-268 CNS) of over 100 µM, a TGI (786-0 renal) of over 100 µM and a TGI (HCT-116 colon) of over 100 µM. The TGI (UACC-62 melanoma) was over 100 µM, the TGI (MDA-MB-435) was over 100 µM and the TGI (SK-MEL-28 melanoma) was over 100 µM.
